Reference: PubChem BioAssay AID686978 (National Center for Advancing Translational Sciences (NCATS), 2013)
Among all 420,000 compounds or so, about 64,000 (15%) were called active. The inconclusive results got no clear call from the source; some entries with a clear call stand among them for comparison. Calls come from the whole dose curve; as a rule, active = well fitted inhibition curve with a large enough effect; inconclusive = small, poorly fitted or top-dose-only effect; inactive = flat fitted curve, though single readings scatter. No potency is given beside an inconclusive call; the fits are too rough.

Assay: qHTS for Inhibitors of human tyrosyl-DNA phosphodiesterase 1 (TDP1): qHTS in cells in absence of CPT; note: nearly all actives have a fitted effect of over 55% in size
Conditions: DT40 Tdp1-/- hTDP1 cells, no CPT, ATP luminescence, 48 h; series mostly up to 46.2 µM
Summary of the method: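 Cells were dispensed at 400 per well, compounds added by pin tool, plates incubated ≥48 hr at 37 °C, then CellTiter-Glo added for 30 min at room temperature before luminescence reading. Line: DT40 Tdp1-/- complemented with hTDP1; camptothecin omitted.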
Potency is the fitted concentration of half-maximal effect; tags give direction and shape of the fitted curve.

SMILES | Potency
CC(=O)Nc1ccc(-c2nc3cc(Cl)ccc3o2)cc1 | inactive
Cc1ccc(NC(=O)CSc2nnc(NC(=O)c3ccco3)s2)cc1 | inconclusive [inhibitor, single point]
CCc1nc(SCC(=O)Nc2nnc(CC)s2)c2c(=O)n(C)c(=O)n(C)c2n1 | active: 8.2 µM
Cn1c(N)c(C(=O)COC(=O)c2cccc(S(=O)(=O)NCc3ccccc3)c2)c(=O)n(C)c1=O | inconclusive [inhibitor, partial curve, poor fit]
CCc1cccc(C)c1NC(=O)c1cc(S(=O)(=O)NCc2ccccc2Cl)ccc1F | active: 25.9 µM
Cc1csc(NC(=O)c2ccc3ccccc3n2)n1 | inconclusive [inhibitor, single point]
C=C1C=C(C)n2ncc(C(=O)N(CCc3ccccc3)Cc3ccccc3)c2N1 | inconclusive [inhibitor, single point]
CCCCCC(=O)N1CCCC(c2nc(-c3ccc(OC)cc3)no2)C1 (centres undefined) | active: 23.1 µM
Cc1c(Cl)cccc1NC(CC(=O)c1ccccc1)C(=O)OCC(=O)c1cccs1 (centres undefined) | inconclusive [inhibitor, single point]
CC(=O)c1cccc(Nc2nc(-c3sc(C)nc3C)cs2)c1 | inconclusive [inhibitor, single point]
O=C(NCc1ccccc1)c1ccc(-c2cn[nH]c2)c2ccoc12 | inconclusive [inhibitor, full curve]
Cn1nc(N)c2c(-c3ccccc3)c(C#N)c(N)nc21 | inconclusive [inhibitor, single point]
Cc1c(Cc2ccccc2)sc(NC(=O)/C=C/c2cccc3ccccc23)c1C(N)=O | active: 3.26 µM
CC(C)c1ccc(N=C(N)N=C(N)N)cc1 | inconclusive [inhibitor, partial curve]
O=C(COC(=O)CCNS(=O)(=O)c1ccccc1)NC(=O)c1ccccc1 | inactive
CN(C)CCCN(C(=O)c1ccc(Br)s1)c1nc2ccc(F)cc2s1 | inconclusive [inhibitor, single point]
COc1ccc(S(=O)(=O)N(C)CC(=O)Nc2cccc(C(C)=O)c2)cc1C | inconclusive [inhibitor, partial curve]
COc1ccc(N(CC(=O)NCc2ccccc2Cl)S(=O)(=O)c2c(C)nn(C)c2C)cc1 | inconclusive [inhibitor, single point]
COc1cc(/C=C/C(=O)O)cc(S(=O)(=O)NCCCC(=O)O)c1OC | inactive
